In paper PMC11335243:
Where two headings read alike, the source gives them in different places. These are yes or no findings as the source states them, for the method shown. For some assays here: Binding seen in cells or lysates may run through a third protein. Some entries that bind do so weakly or less than the wild type. For some assays here: Sequences can lack the tags named with a protein.

Amino acid sequences for entries named in this document (tags omitted). A change or cut given only in a name is not applied to a line headed by its entry. Residues count along the entry.
UniProt Q6ZNE5: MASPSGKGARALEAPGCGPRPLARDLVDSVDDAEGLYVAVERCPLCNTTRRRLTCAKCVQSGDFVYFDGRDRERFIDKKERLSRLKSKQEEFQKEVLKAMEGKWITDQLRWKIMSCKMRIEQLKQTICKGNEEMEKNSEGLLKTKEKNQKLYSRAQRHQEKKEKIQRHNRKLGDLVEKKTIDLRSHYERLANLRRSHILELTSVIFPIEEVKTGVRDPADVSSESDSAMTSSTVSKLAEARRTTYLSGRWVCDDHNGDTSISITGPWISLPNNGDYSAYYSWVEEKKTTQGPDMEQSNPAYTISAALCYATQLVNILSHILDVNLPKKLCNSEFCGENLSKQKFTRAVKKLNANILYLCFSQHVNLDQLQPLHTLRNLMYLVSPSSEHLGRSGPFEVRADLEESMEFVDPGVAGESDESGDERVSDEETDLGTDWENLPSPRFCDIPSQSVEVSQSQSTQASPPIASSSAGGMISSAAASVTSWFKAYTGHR
GST-ATG14 247-332: residues 247-332 of Q6ZNE5
UniProt D4A4K3: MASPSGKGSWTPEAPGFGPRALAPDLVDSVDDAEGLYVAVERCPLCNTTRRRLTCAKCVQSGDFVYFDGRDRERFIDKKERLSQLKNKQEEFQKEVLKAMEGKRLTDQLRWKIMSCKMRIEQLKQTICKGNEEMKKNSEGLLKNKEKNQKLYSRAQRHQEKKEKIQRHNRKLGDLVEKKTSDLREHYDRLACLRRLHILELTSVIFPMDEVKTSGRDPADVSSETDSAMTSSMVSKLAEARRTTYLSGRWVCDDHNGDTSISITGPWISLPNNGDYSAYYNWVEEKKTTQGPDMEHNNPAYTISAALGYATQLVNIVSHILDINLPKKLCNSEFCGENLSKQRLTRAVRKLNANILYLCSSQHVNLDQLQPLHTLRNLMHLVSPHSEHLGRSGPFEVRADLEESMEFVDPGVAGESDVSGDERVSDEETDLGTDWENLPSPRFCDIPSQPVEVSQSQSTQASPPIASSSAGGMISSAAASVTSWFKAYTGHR
UniProt P08592, residues 18-770: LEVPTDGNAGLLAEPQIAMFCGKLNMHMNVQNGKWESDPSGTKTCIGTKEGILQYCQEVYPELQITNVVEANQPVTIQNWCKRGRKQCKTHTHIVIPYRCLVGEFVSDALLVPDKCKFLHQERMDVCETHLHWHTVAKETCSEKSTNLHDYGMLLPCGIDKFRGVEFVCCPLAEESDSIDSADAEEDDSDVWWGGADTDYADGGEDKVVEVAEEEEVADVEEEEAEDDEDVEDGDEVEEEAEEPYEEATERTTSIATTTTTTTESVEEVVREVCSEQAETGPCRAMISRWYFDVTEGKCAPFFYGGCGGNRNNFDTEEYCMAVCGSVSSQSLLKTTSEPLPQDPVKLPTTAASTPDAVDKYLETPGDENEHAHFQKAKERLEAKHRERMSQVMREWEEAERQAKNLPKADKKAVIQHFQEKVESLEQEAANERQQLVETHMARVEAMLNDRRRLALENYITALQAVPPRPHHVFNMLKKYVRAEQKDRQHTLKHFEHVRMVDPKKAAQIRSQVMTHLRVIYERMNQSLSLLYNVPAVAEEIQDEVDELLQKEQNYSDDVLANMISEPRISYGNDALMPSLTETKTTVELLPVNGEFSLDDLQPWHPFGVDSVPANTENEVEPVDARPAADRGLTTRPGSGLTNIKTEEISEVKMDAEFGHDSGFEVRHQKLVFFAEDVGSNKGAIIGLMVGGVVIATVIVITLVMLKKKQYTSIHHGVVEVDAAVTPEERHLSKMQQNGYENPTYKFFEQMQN
UniProt Q91XJ1: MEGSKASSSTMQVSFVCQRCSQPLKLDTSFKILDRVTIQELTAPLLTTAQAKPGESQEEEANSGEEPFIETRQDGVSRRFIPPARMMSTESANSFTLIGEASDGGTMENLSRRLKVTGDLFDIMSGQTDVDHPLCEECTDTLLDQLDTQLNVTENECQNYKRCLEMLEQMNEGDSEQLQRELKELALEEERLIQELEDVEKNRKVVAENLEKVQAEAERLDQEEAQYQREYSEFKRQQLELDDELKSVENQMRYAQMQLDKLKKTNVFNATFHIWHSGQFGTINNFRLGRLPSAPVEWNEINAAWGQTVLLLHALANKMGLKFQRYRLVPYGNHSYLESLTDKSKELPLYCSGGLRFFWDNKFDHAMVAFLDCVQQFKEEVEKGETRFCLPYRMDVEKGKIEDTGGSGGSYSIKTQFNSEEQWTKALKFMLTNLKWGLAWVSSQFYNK
UniProt Q14457: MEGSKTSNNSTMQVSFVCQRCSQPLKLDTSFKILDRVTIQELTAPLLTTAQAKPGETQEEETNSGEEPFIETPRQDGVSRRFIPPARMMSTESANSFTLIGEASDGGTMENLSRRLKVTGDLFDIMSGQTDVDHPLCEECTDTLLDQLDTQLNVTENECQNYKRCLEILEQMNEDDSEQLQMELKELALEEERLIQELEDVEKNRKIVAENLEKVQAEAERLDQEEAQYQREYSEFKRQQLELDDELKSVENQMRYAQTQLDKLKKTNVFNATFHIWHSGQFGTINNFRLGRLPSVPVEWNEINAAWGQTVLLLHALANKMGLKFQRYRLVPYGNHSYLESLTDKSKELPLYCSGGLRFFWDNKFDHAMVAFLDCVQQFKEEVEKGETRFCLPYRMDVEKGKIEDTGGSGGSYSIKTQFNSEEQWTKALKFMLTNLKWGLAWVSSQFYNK
UniProt P0C0R5: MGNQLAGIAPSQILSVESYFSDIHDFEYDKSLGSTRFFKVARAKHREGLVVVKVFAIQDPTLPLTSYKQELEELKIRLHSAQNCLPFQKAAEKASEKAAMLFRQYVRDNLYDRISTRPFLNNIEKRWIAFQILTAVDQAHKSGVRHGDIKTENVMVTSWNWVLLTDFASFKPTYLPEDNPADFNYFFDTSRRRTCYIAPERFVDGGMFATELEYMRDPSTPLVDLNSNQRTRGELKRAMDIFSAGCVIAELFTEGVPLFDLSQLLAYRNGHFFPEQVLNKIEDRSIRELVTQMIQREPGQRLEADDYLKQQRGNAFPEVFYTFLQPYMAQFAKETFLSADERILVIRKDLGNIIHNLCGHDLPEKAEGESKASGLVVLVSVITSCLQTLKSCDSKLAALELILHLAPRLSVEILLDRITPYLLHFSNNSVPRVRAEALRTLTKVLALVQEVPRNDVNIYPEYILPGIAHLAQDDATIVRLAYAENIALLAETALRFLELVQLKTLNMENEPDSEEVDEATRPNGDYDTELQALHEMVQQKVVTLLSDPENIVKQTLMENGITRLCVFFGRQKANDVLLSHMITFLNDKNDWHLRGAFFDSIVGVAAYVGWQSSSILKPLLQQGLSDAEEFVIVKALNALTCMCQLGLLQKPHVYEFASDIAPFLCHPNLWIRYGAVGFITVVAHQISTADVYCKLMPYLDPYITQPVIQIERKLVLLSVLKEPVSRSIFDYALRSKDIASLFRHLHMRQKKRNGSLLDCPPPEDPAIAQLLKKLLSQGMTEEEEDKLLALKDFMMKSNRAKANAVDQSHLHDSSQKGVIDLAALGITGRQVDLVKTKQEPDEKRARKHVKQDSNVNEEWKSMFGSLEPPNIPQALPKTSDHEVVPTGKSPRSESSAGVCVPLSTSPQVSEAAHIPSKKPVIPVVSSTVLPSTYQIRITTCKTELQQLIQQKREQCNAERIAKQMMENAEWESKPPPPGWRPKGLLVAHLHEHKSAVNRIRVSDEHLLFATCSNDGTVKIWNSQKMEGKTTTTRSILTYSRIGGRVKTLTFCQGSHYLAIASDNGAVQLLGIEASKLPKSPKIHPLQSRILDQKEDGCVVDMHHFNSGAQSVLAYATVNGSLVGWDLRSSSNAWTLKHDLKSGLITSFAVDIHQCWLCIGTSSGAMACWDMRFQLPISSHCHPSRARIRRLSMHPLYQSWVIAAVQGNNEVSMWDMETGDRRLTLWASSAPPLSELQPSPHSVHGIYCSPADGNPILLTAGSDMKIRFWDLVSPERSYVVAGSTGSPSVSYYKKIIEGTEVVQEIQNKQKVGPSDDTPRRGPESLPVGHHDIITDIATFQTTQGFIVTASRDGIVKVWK
UniProt Q99570: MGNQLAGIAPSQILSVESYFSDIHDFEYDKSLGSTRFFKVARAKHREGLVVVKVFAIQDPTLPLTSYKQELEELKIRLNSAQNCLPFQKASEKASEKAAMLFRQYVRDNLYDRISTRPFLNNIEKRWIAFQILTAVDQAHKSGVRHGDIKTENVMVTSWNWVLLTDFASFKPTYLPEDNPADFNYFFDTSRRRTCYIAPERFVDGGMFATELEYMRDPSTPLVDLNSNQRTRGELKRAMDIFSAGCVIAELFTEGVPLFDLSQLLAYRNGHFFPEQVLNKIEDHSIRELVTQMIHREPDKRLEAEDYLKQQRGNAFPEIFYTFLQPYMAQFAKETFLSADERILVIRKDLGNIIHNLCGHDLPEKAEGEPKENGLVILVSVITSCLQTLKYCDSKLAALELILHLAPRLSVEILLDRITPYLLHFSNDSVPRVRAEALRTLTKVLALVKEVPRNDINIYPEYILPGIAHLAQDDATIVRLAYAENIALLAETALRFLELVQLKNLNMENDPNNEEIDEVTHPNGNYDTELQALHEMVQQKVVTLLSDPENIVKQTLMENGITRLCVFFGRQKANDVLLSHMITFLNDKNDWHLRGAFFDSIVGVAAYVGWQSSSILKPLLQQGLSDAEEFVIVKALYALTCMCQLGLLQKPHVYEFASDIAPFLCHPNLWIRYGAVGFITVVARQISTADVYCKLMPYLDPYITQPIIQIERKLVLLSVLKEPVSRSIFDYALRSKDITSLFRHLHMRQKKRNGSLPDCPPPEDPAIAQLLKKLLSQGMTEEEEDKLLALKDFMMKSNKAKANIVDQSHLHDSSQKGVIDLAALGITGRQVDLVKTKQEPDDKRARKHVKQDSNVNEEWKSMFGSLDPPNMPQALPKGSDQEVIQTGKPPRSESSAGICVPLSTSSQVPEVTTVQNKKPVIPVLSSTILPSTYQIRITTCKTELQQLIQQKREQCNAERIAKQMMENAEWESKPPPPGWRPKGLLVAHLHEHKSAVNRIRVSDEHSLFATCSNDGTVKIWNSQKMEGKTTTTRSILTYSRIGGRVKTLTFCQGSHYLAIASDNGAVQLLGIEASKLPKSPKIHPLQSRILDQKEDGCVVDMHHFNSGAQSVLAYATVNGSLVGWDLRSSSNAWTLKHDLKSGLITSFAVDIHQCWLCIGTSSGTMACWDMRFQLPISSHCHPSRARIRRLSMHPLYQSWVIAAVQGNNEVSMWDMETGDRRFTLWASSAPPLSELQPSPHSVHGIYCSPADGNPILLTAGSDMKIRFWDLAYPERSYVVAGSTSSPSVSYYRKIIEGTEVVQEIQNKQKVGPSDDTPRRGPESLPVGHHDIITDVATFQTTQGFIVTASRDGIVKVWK
UniProt O88763: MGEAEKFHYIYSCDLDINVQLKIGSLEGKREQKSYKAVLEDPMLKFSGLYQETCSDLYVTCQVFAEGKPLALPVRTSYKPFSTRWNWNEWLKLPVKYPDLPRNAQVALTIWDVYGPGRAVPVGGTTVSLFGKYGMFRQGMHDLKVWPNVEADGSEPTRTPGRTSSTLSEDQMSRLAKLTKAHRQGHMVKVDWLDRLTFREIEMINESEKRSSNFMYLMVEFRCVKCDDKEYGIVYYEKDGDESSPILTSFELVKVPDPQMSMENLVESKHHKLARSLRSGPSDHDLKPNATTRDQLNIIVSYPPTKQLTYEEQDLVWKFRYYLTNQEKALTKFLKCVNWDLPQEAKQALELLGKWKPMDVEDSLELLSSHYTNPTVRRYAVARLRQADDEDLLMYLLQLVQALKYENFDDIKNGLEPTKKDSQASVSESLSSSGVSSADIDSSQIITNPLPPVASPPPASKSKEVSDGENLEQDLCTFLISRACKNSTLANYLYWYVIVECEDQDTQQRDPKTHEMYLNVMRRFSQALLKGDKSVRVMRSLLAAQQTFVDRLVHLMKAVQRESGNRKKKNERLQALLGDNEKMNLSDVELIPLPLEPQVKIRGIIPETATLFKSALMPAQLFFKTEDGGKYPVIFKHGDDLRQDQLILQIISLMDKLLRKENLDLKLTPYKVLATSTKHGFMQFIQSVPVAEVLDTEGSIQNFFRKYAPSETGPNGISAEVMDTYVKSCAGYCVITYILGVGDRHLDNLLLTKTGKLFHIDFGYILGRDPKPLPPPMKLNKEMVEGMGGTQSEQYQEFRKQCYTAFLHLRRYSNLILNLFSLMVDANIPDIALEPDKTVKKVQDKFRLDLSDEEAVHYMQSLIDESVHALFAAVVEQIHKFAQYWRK

How the values were obtained:
[1] = biological target: GST-ATG14 247-332 (human) (UniProt Q6ZNE5); experiment: pull-down; CHO cells co-transfected with GST-ATG14 247-332 + APP, with or without GULP1 or GULP1m; GST baits captured from cell lysates by glutathione resins; immunoblot
[2] = biological target: ATG14 (endogenous, rat brain) (rat (endogenous in rat brain)) (UniProt D4A4K3); experiment: co-IP; endogenous ATG14 immunoprecipitated from total rat brain lysate with an anti-ATG14 antibody; immunoblot
GST-GULP1 = biological target: T1, GST-GULP1 (UniProt Q9UBP9); experiment: pull-down; bacterially expressed GST-GULP1 baits (whole or fragments) on Glutathione Sepharose 4B, incubated with transfected cell lysates at 4 °C for an hour; lysis buffer 50 mM Tris-HCl pH 7.5, 150 mM NaCl, 1 mM EDTA, 1% Triton X100; immunoblot; only the target purified
T1 sequence: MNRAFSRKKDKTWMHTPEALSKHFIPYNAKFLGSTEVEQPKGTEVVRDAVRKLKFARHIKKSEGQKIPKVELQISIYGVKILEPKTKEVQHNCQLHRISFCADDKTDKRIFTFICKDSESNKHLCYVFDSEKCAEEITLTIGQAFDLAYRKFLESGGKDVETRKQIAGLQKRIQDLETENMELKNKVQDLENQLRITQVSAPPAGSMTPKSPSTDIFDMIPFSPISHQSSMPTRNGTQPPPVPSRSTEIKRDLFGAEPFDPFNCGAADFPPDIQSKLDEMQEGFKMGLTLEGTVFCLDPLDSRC

[3] = biological target: T2, GST-GULP1 1-168 (bacterial bait) (UniProt Q9UBP9); experiment: as above
T2 sequence: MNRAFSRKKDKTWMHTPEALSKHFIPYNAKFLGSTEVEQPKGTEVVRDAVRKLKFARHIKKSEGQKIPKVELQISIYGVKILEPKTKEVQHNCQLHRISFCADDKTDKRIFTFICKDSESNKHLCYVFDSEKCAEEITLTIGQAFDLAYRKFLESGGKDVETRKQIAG

His6-ATG14 (human) [4] = biological target: His6-ATG14 (human) (UniProt Q6ZNE5); experiment: pull-down; bacterially expressed His6-ATG14 baits; GST-GULP1 fragments in transfected cell lysate; GST proteins immunoblotted; only the target purified
[5] = biological target: GST-ATG14 247-332 (human) (UniProt Q6ZNE5); experiment: pull-down; CHO cells co-transfected with GST-ATG14 247-332 + APP, with or without GULP1 or GULP1m; GST baits captured from cell lysates by glutathione resins; immunoblot; remark: listed apart in the source
[6] = biological target: Flag-tagged full-length human ATG14 (human) (UniProt Q6ZNE5); experiment: co-IP; HEK293 cells transfected with ATG14-FLAG and GULP1; ATG14-FLAG immunoprecipitated with mouse anti-FLAG M2 for 16 h at 4 °C, protein G sepharose; immunoblot
[7] = biological target: Flag-tagged full-length human ATG14 (human) (UniProt Q6ZNE5); experiment: proximity ligation; Duolink in situ PLA in HEK293 cells transfected with GULP1 + ATG14-FLAG; goat anti-GULP1 P19 and mouse anti-FLAG M2
His6-ATG14 (human) [8] = biological target: His6-ATG14 (human) (UniProt Q6ZNE5); experiment: pull-down; in vitro binding: GST or GST-GULP1 purified from E. coli mixed with Ni-NTA resins coated with His6-ATG14 for 16 h at 4 °C; detected by rat anti-GST; both purified

## APP695 (from UniProt P05067-4 18-695)
[1]
  binding: binds

## APP (endogenous, rat brain) (from UniProt P08592 18-770)
[2]
  binding: binds

## Beclin1 (endogenous, rat brain) (from UniProt Q91XJ1 1-448)
[2]
  binding: binds

## Beclin1 (from UniProt Q14457 1-450)
GST-GULP1
  binding: no binding

## Flag-tagged full-length human ATG14 (from UniProt Q6ZNE5 1-492)
[3]
  binding: binds
GST-GULP1
  binding: binds

## Vps15 (endogenous, rat brain) (from UniProt P0C0R5 1-1358)
[2]
  binding: binds

## Vps15 (from UniProt Q99570 1-1358)
GST-GULP1
  binding: no binding

## Vps34 (endogenous, rat brain) (from UniProt O88763 1-887)
[2]
  binding: binds

B1: GST-GULP1 1-168 (in lysate, Fig. 2G) (domain or fragment, UniProt Q9UBP9 1-168)
chain: MNRAFSRKKDKTWMHTPEALSKHFIPYNAKFLGSTEVEQPKGTEVVRDAVRKLKFARHIKKSEGQKIPKVELQISIYGVKILEPKTKEVQHNCQLHRISFCADDKTDKRIFTFICKDSESNKHLCYVFDSEKCAEEITLTIGQAFDLAYRKFLESGGKDVETRKQIAG
His6-ATG14 (human) [4]
  binding: binds

B2: GST-GULP1 1-112 (domain or fragment, UniProt Q9UBP9 1-112)
chain: MNRAFSRKKDKTWMHTPEALSKHFIPYNAKFLGSTEVEQPKGTEVVRDAVRKLKFARHIKKSEGQKIPKVELQISIYGVKILEPKTKEVQHNCQLHRISFCADDKTDKRIFT
His6-ATG14 (human) [4]
  binding: binds

B3: GULP1 (transfected in CHO cells) (protein, UniProt Q9UBP9 1-304)
chain: MNRAFSRKKDKTWMHTPEALSKHFIPYNAKFLGSTEVEQPKGTEVVRDAVRKLKFARHIKKSEGQKIPKVELQISIYGVKILEPKTKEVQHNCQLHRISFCADDKTDKRIFTFICKDSESNKHLCYVFDSEKCAEEITLTIGQAFDLAYRKFLESGGKDVETRKQIAGLQKRIQDLETENMELKNKVQDLENQLRITQVSAPPAGSMTPKSPSTDIFDMIPFSPISHQSSMPTRNGTQPPPVPSRSTEIKRDLFGAEPFDPFNCGAADFPPDIQSKLDEMQEGFKMGLTLEGTVFCLDPLDSRC
[5]
  binding: binds

B4: HA-tagged full-length GULP1 (protein, UniProt Q9UBP9 1-304)
chain: MNRAFSRKKDKTWMHTPEALSKHFIPYNAKFLGSTEVEQPKGTEVVRDAVRKLKFARHIKKSEGQKIPKVELQISIYGVKILEPKTKEVQHNCQLHRISFCADDKTDKRIFTFICKDSESNKHLCYVFDSEKCAEEITLTIGQAFDLAYRKFLESGGKDVETRKQIAGLQKRIQDLETENMELKNKVQDLENQLRITQVSAPPAGSMTPKSPSTDIFDMIPFSPISHQSSMPTRNGTQPPPVPSRSTEIKRDLFGAEPFDPFNCGAADFPPDIQSKLDEMQEGFKMGLTLEGTVFCLDPLDSRC
[6]
  binding: binds

B5: GULP1 (endogenous, rat brain) (protein, UniProt Q5PQS4 1-304)
chain: MNRAFSRKKDKTWMHMPEALSKHYVPYNAKFLGSTEVEQPKGTEVVRDAVRKLKFARHIKKSEGQKIPKVELQISIYGVKILEPKTKEVQHNCQLHRISFCADDKTDKRIFTFICKDSESNKHLCFVFDSEKCAEEITLTIGQAFDLAYRKFLESGGKDVETRKQIAGMQKRIQDLETENMELKNKVQDLENRLRTTQVSSTPAGGVTVTSPSTDIFDMIPFSPISHPSPTSAGNGTQLPPIPSRSSEIKRDLFGAEPFDPFNCGAGDFPPDIQSKLDEMQEGFKMGLTLEGTVFCLDPLDSRC
[2]
  binding: binds

B6: GULP1 (transfected, tag not told) (protein, UniProt Q9UBP9 1-304)
chain: MNRAFSRKKDKTWMHTPEALSKHFIPYNAKFLGSTEVEQPKGTEVVRDAVRKLKFARHIKKSEGQKIPKVELQISIYGVKILEPKTKEVQHNCQLHRISFCADDKTDKRIFTFICKDSESNKHLCYVFDSEKCAEEITLTIGQAFDLAYRKFLESGGKDVETRKQIAGLQKRIQDLETENMELKNKVQDLENQLRITQVSAPPAGSMTPKSPSTDIFDMIPFSPISHQSSMPTRNGTQPPPVPSRSTEIKRDLFGAEPFDPFNCGAADFPPDIQSKLDEMQEGFKMGLTLEGTVFCLDPLDSRC
[7]
  binding: binds

B7: GST-GULP1 (protein, UniProt Q9UBP9 1-304)
chain: MNRAFSRKKDKTWMHTPEALSKHFIPYNAKFLGSTEVEQPKGTEVVRDAVRKLKFARHIKKSEGQKIPKVELQISIYGVKILEPKTKEVQHNCQLHRISFCADDKTDKRIFTFICKDSESNKHLCYVFDSEKCAEEITLTIGQAFDLAYRKFLESGGKDVETRKQIAGLQKRIQDLETENMELKNKVQDLENQLRITQVSAPPAGSMTPKSPSTDIFDMIPFSPISHQSSMPTRNGTQPPPVPSRSTEIKRDLFGAEPFDPFNCGAADFPPDIQSKLDEMQEGFKMGLTLEGTVFCLDPLDSRC
His6-ATG14 (human) [8]
  binding: binds

B8: GST-GULP1 1-56 (domain or fragment, UniProt Q9UBP9 1-56)
chain: MNRAFSRKKDKTWMHTPEALSKHFIPYNAKFLGSTEVEQPKGTEVVRDAVRKLKFA
His6-ATG14 (human) [4]
  binding: no binding
